# Experimental data as given in the supplement of paper PMC12645437, “Orthogonal IMiD-Degron Pairs Induce Selective Protein Degradation in Cells” (ACS Chemical Biology, 2025).
# This is one part of the list.
# B1: Q9UKT9 (peptide)
# chain: LYCNQCGFRCTQKGNLLRHIKL
# B2: Q9UKT9 (peptide)
# chain: FHCEVCGAMFTQKGNLLRHIKL
# B3: Q9UKT9 (peptide)
# chain: FRCNQCGHCFTQKGNLLRHIKL
# B4: Q9UKT9 (peptide)
# chain: FECNQCGAPFTQKGNLLRHIKL
# B5: Q9UKT9 (peptide)
# chain: FKCNVCGANFTQKGNLLRHIKL
# B6: Q9UKT9 (peptide)
# chain: FECPQCGAYFTQKGNLLRHIKL
# B7: Q9UKT9 (peptide)
# chain: FMCDICGAVFTQKGNLLRHIKL
# B8: Q9UKT9 (peptide)
# chain: FRCDVCGAAFTQKGNLLRHIKL
# B9: Q9UKT9 (peptide)
# chain: FHCNQCGASFTQKGNLLRHIKL
# B10: Q9UKT9 (peptide)
# chain: FCCNICGAFFTQKGNLLRHIKL
# B11: Q9UKT9 (peptide)
# chain: FYCPVCGACFTQKGNLLRHIKL
# B12: Q9UKT9 (peptide)
# chain: FVCEICGRKFTQKGNLLRHIKL
# B13: Q9UKT9 (peptide)
# chain: FSCDICGAQFTQKGNLLRHIKL
# B14: Q9UKT9 (peptide)
# chain: LGCNQCGFKCTQKGNLLRHIKL
# B15: Q9UKT9 (peptide)
# chain: FRCEICGACFTQKGNLLRHIKL
# B16: Q9UKT9 (peptide)
# chain: FGCPQCGATFTQKGNLLRHIKL
# B17: Q9UKT9 (peptide)
# chain: FKCPQCGASFTQKGNLLRHIKL
# B18: Q9UKT9 (peptide)
# chain: FSCDQCGAWFTQKGNLLRHIKL
# B19: Q9UKT9 (peptide)
# chain: LKCNQCGFDCTQKGNLLRHIKL
# B20: Q9UKT9 (peptide)
# chain: FRCEVCGAPFTQKGNLLRHIKL
# B21: Q9UKT9 (peptide)
# chain: FCCEQCGAWFTQKGNLLRHIKL
# B22: Q9UKT9 (peptide)
# chain: FICPICGAQFTQKGNLLRHIKL
# B23: Q9UKT9 (peptide)
# chain: FHCEVCGACFTQKGNLLRHIKL
# B24: Q9UKT9 (peptide)
# chain: FCCNVCGASFTQKGNLLRHIKL
# B25: Q9UKT9 (peptide)
# chain: FRCPVCGAYFTQKGNLLRHIKL
# B26: Q9UKT9 (peptide)
# chain: FHCNQCGRDFTQKGNLLRHIKL
# B27: Q9UKT9 (peptide)
# chain: FYCPICGHYFTQKGNLLRHIKL
# B28: Q9UKT9 (peptide)
# chain: FCCPVCGALFTQKGNLLRHIKL
# B29: Q9UKT9 (peptide)
# chain: FTCPQCGATFTQKGNLLRHIKL
# B30: Q9UKT9 (peptide)
# chain: FACEICGHFFTQKGNLLRHIKL
# B31: Q9UKT9 (peptide)
# chain: FICPICGHVFTQKGNLLRHIKL
# B32: Q9UKT9 (peptide)
# chain: FKCNQCGHTFTQKGNLLRHIKL
# Molecular target: no compound (DMSO)
# Experiment: log2 fold change of degron read counts, EGFP-low vs EGFP+ sorted cells; higher = lower degron-EGFP level without compound (poor expression or instability)
# Details: compound: DMSO control; 18 h
# 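Also: jurkat cells carrying a lentiviral library of mutant zinc finger degrons fused to EGFP plus mCherry, mCherry+ cells FACS sorted, degron abundance counted by next-generation sequencing.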
row,Sequence,log2 fold change of degron read counts
1,B1,0.838
2,B2,-1.65
3,B3,0.186
4,B4,-1.35
5,B5,-1.34
6,B6,-0.948
7,B7,-0.816
8,B8,-0.879
9,B9,-0.718
10,B10,0.257
11,B11,0.389
12,B12,-0.684
13,B13,-1.32
14,B14,1.06
15,B15,-1.69
16,B16,-0.787

row,Sequence,log2 fold change of degron read counts
1,B17,-0.375
2,B18,-0.301
3,B19,-0.266
4,B20,-1.35
5,B21,0.227
6,B22,-0.0155
7,B23,-1.66
8,B24,-1.23
9,B25,1.08
10,B26,-1.39
11,B27,0.256
12,B28,-0.0431
13,B29,-0.324
14,B30,0.206
15,B31,-0.117
16,B32,-0.178
